Measured values reported in patent US20260200947A1, “FUSED CYCLIC COMPOUNDS AND USE THEREOF” (Jacobio Pharmaceuticals Co., Ltd., priority 2022, published 2026).

Tests used:
[1] = system: AsPC-1 cells (K-Ras G12D)

For `C#Cc1c(F)ccc2cc(N)cc(-c3nc4c5c(nc(OCC67CC(=C)CN6C[C@H](F)C7)nc5c3F)N3CCCOC[C@H]3CO4)c12` (some centres unmarked) [Compound 13], which IC50 (AGS cells (K-Ras G12D)) is on record?
Its IC50 is 19.6 nM.

What about the IC50 [1] of the same compound?
Its IC50 is 47.4 nM.
